The whole screen tested about 3,200 compounds, of which about 300 (9.4%) showed activity. Only a part is listed here, and it is no random draw.
Tested on: A673/TR/shEF
Assay: cell viability (LOESS-normalised, relative to median of negative controls) (log2 ratio); higher = more viable cells (less compound effect), active = hit call of the paper (over 3 MAD below the median)
Conditions: treatment time: 72 h
Outline: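 For three days, A673/TR/shEF Ewing sarcoma cells in 384-well plates (1,500 per well) were treated with library compounds at two or more concentrations or with DMSO controls, after doxycycline had been added or withheld 24 h beforehand to induce EWS-FLI1 shRNA knockdown. Viability was read by CellTiter-Glo luminescence on an Envision reader. The data were LOESS-corrected per plate, divided by the median of negative controls and log2-transformed.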

[1] = 0.25 µM, library screen: screen2, EWS-FLI1 expression: high (no doxycycline)
[2] = 0.25 µM, library screen: screen2, EWS-FLI1 expression: low (doxycycline-induced shRNA knockdown)
[3] = 2.5 µM, library screen: screen2, EWS-FLI1 expression: high (no doxycycline)
[4] = 2.5 µM, library screen: screen2, EWS-FLI1 expression: low (doxycycline-induced shRNA knockdown)
[5] = 8.3 µM, library screen: screen3, EWS-FLI1 expression: high (no doxycycline)
[6] = 25 µM, library screen: screen3, EWS-FLI1 expression: high (no doxycycline)
[7] = 25 µM, library screen: screen3, EWS-FLI1 expression: low (doxycycline-induced shRNA knockdown)
[8] = 0.25 µM, library screen: screen1, EWS-FLI1 expression: high (no doxycycline)
[9] = 0.25 µM, library screen: screen1, EWS-FLI1 expression: low (doxycycline-induced shRNA knockdown)
[10] = 2.5 µM, library screen: screen1, EWS-FLI1 expression: high (no doxycycline)
[11] = 2.5 µM, library screen: screen1, EWS-FLI1 expression: low (doxycycline-induced shRNA knockdown)
[12] = 0.103 µM, library screen: screen3, EWS-FLI1 expression: high (no doxycycline)
[13] = 0.103 µM, library screen: screen3, EWS-FLI1 expression: low (doxycycline-induced shRNA knockdown)
[14] = 0.308 µM, library screen: screen3, EWS-FLI1 expression: high (no doxycycline)
[15] = 0.308 µM, library screen: screen3, EWS-FLI1 expression: low (doxycycline-induced shRNA knockdown)
[16] = 0.926 µM, library screen: screen3, EWS-FLI1 expression: high (no doxycycline)
[17] = 0.926 µM, library screen: screen3, EWS-FLI1 expression: low (doxycycline-induced shRNA knockdown)
[18] = 2.8 µM, library screen: screen3, EWS-FLI1 expression: high (no doxycycline)
[19] = 2.8 µM, library screen: screen3, EWS-FLI1 expression: low (doxycycline-induced shRNA knockdown)
[20] = 8.3 µM, library screen: screen3, EWS-FLI1 expression: low (doxycycline-induced shRNA knockdown)

Measured: cell viability (log2)

Nc1nc(Nc2ccccc2)nc2c1ncn2C1O[C@H](CO)[C@@H](O)[C@H]1O (some centres undefined)
inactive: [1] 0.161 | [2] 0.05 | [3] 0.213 | [4] -0.0193

COc1cccc2c1[C@@H]1CN(CCCCn3c(=O)[nH]c4c(sc5ncc(-c6ccccc6)nc54)c3=O)C[C@@H]1CO2
inactive: [1] 0.117 | [2] 0.0856 | [3] 0.103 | [4] 0.0563

Nc1nc(Cl)nc2c1ncn2[C@H]1C[C@H](O)[C@@H](CO)O1
active: [5] -0.402 | [6] -1.32 | [7] -0.402

CN[C@@H]1[C@H](O[C@H]2[C@H](O[C@H]3[C@H](O)[C@@H](O)[C@H](N=C(N)N)[C@@H](O)[C@@H]3N=C(N)N)O[C@@H](C)[C@]2(O)C=O)O[C@@H](CO)[C@H](O)[C@H]1O
inactive: [8] 0.0829 | [9] 0.128 | [10] 0.11 | [11] 0.129

Cc1cccc(C(=O)O)c1O
inactive: [8] 0.098 | [9] 0.0424 | [10] 0.0687 | [11] 0.0506

OCCOCCN1CCN(C2=Nc3ccccc3Sc3ccccc32)CC1
inactive: [12] 0.129 | [13] 0.0203 | [14] 0.116 | [15] 0.0367 | [16] 0.0851 | [17] 0.0431 | [18] 0.0968 | [19] 0.0475 | [5] 0.102 | [20] 0.0358 | [6] 0.0832 | [7] 0.0818

COc1cccc2c1C(=O)c1c(O)c3c(c(O)c1C2=O)C[C@@](O)(C(=O)CO)C[C@@H]3O[C@H]1C[C@H](N)[C@H](O)[C@H](C)O1
inactive: [12] -0.177 | [13] -0.0878
active: [14] -0.86 | [15] -0.36 | [16] -1.59 | [17] -0.403 | [18] -2.62 | [19] -1.5 | [5] -4.26 | [20] -4.27 | [6] -4.05 | [7] -4.25

CC1(C)S[C@@H]2[C@H](NC(=O)[C@H](N)c3ccc(O)cc3)C(=O)N2[C@H]1C(=O)O
active: [6] -0.676
inactive: [12] 0.0884 | [13] 0.104 | [8] 0.0883 | [9] 0.0656 | [14] -0.0334 | [15] 0.0742 | [16] 0.0733 | [17] 0.103 | [10] 0.14 | [11] 0.178 | [18] -0.017 | [19] 0.0291 | [5] 0.0293 | [20] 0.106 | [7] -0.0237

CCSc1nnc(-c2ccc([N+](=O)[O-])cc2)n1-c1ccccc1
inactive: [8] 0.0862 | [9] 0.0888 | [10] 0.0629 | [11] 0.153

O=C(CCc1ccc(O)cc1)c1c(O)cc(O)cc1O[C@@H]1O[C@H](CO)[C@@H](O)[C@H](O)[C@H]1O
inactive: [8] 0.0367 | [9] -0.0139 | [10] 0.0924 | [11] -0.0379

S=C(S)OC1CC2CC1C1CCCC21 (centres undefined)
0.328: [3]
inactive: [1] 0.138 | [2] 0.0575 | [4] 0.124

COc1ccc(CN2CCN(Cc3cccc([N+](=O)[O-])c3)CC2)cc1OC
inactive: [8] 0.0511 | [9] 0.032 | [10] 0.111 | [11] 0.138

CNCCCC1c2ccccc2C=Cc2ccccc21
inactive: [1] 0.186 | [2] 0.0526 | [3] 0.166 | [4] 0.0326

CCN1CCC[C@H]1CNC(=O)c1c(OC)ccc(I)c1O
inactive: [1] 0.251 | [2] 0.174 | [3] 0.0364 | [4] 0.15

C[C@]12CCC(=O)C=C1CC[C@@H]1[C@@H]2[C@@H](O)C[C@@]2(C)[C@H]1CC[C@]2(O)C(=O)CO
inactive: [12] 0.107 | [13] -0.0348 | [8] 0.135 | [9] -0.115 | [1] 0.174 | [2] 0.0437 | [14] 0.088 | [15] 0.0811 | [16] 0.0504 | [17] 0.0535 | [10] 0.105 | [11] -0.0583 | [3] 0.0143 | [4] 0.118 | [18] 0.122 | [19] 0.0605 | [5] 0.0545 | [20] 0.0667 | [6] 0.0715 | [7] 0.184

COc1ccc(CCN(C)CCCC(C#N)(c2ccc(OC)c(OC)c2)C(C)C)cc1OC (centres undefined)
inactive: [8] 0.0596 | [9] -0.0063 | [1] 0.149 | [2] 0.082 | [10] 0.0625 | [11] 0.124 | [3] 0.0425 | [4] 0.123

Cc1onc(-c2ccccc2)c1-c1ccc(S(N)(=O)=O)cc1
inactive: [8] 0.0303 | [9] -0.049 | [10] 0.0231 | [11] 0.0913

CCCc1cc(=O)[nH]c(=S)[nH]1
inactive: [8] -0.0121 | [9] 0.118 | [10] 0.116 | [11] 0.125

C[N+]1(CCCCC[N+]2(C)CCCC2)CCCC1
inactive: [8] 0.0238 | [9] 0.0337 | [1] 0.156 | [2] 0.0846 | [10] 0.121 | [11] 0.0345 | [3] 0.163 | [4] 0.0884

O=C(Nc1ccccc1)c1cc([N+](=O)[O-])ccc1Cl
inactive: [1] 0.158 | [2] 0.0928 | [3] 0.158 | [4] 0.106

CO/N=C(\C(=O)N[C@@H]1C(=O)N2C(C(=O)OCOC(=O)C(C)(C)C)=C(/C=C\c3scnc3C)CS[C@H]12)c1csc(N)n1
inactive: [12] 0.00133 | [13] 0.0197 | [14] 0.0394 | [15] 0.0454 | [16] 0.0372 | [17] 0.00912 | [18] 0.0102 | [19] -0.00348 | [5] 0.0518 | [20] 0.0133 | [6] -0.0149 | [7] 0.0407

Cn1cnc2nc(NCCO)nc(NCc3ccccc3)c21
inactive: 0.025 µM, library screen: screen1, EWS-FLI1 expression: high (no doxycycline) 0.128 | 0.025 µM, library screen: screen1, EWS-FLI1 expression: low (doxycycline-induced shRNA knockdown) 0.0359 | [8] 0.0849 | [9] 0.00162 | [10] -0.0202 | [11] 0.00254 | 25 µM, library screen: screen1, EWS-FLI1 expression: high (no doxycycline) 0.0813 | 25 µM, library screen: screen1, EWS-FLI1 expression: low (doxycycline-induced shRNA knockdown) 0.0973

COc1c2ccoc2c(OC)c2oc(=O)ccc12
inactive: [8] 0.157 | [9] -0.0309 | [10] 0.197 | [11] 0.0899

COc1ccc([C@@H]2CC(=O)c3c(O)cc(O[C@@H]4O[C@H](CO[C@@H]5O[C@@H](C)[C@H](O)[C@@H](O)[C@H]5O)[C@@H](O)[C@H](O)[C@H]4O)cc3O2)cc1O
inactive: [8] 0.189 | [9] 0.144 | [10] 0.16 | [11] 0.172

CC(C)(C(=O)O)c1ccc(C(O)CCCN2CCC(C(O)(c3ccccc3)c3ccccc3)CC2)cc1 (centres undefined)
inactive: [8] 0.00879 | [9] 0.0307 | [1] 0.284 | [2] 0.097 | [10] 0.0359 | [11] 0.0422 | [3] 0.192 | [4] 0.139

Cc1cc(C(C)(C)C)c(O)c(C)c1CC1=NCCN1
inactive: [12] 0.0927 | [13] 0.118 | [8] 0.102 | [9] 0.143 | [1] 0.2 | [2] 0.136 | [14] 0.116 | [15] 0.0968 | [16] 0.0883 | [17] 0.0478 | [10] 0.125 | [11] 0.241 | [3] 0.15 | [4] 0.0298 | [18] 0.124 | [19] 0.0935 | [5] 0.094 | [20] 0.063 | [6] 0.112 | [7] 0.066

NC(Cc1ccc(Cl)cc1)C(=O)O (centres undefined)
inactive: [8] 0.0377 | [9] 0.114 | [1] 0.187 | [2] 0.149 | [10] 0.0986 | [11] 0.0294 | [3] 0.0837 | [4] 0.083

CCCCS(=N)(=O)CC[C@H](N)C(=O)O (some centres undefined)
inactive: [1] 0.282 | [2] 0.133 | [3] 0.123 | [4] -0.00331

CC(=O)OC1CCC2(C)C(CCC3C2CCC2(C)C3CC3OC4(CCC(C)CO4)C(C)C32)C1 (centres undefined)
inactive: [8] 0.0872 | [9] 0.0698 | [10] 0.151 | [11] 0.0624

CN(C)CCCN1c2ccccc2Sc2ccccc21
active: [3] -1.62 | [4] -0.801

Fc1cccc(CN(C2=NCCN2)c2c(Cl)cccc2Cl)c1
inactive: [1] 0.243 | [2] 0.118 | [3] 0.138 | [4] 0.0968

C[N+]1(C)C[C@H](O)C[C@H]1C(=O)[O-]
inactive: [8] 0.068 | [9] -0.00246 | [10] 0.0629 | [11] 0.0874

CC1C(=O)CC2CC1C2(C)C (centres undefined)
active: [8] -0.106
inactive: [9] 0.0655 | [10] 0.091 | [11] 0.103

COC(=O)C[C@H](NC(=O)[C@H](C)NC(=O)[C@@H](NC(=O)OCc1ccccc1)C(C)C)C(=O)CF
inactive: [8] 0.0634 | [9] 0.0507 | [10] 0.0598 | [11] -0.112

CC(=O)Nc1ccccc1
inactive: [8] 0.117 | [9] 0.042 | [10] 0.102 | [11] -0.0494

CSc1ccc2c(c1)C(N1CCN(C)CC1)Cc1ccccc1S2 (centres undefined)
inactive: [1] 0.228 | [2] 0.154 | [3] 0.066 | [4] 0.0449

Source: the supplement of paper PMC6089552
